# Results as given in paper PMC4336329 (PLoS ONE, 2015).
# The campaign covered roughly 310,000 compounds. About 2,200 (0.71%) showed an effect of 50% or more. Effects have a minus sign here. The list shows a part of the results.
# Molecular target: human ether-à-go-go-related gene (hERG) potassium channel (human, UniProt Q12809)
# Assay: primary screen, population patch clamp on CHO cells stably expressing hERG
# human ether-à-go-go-related gene (hERG) potassium channel, sequence (Q12809 whole entry, looked up): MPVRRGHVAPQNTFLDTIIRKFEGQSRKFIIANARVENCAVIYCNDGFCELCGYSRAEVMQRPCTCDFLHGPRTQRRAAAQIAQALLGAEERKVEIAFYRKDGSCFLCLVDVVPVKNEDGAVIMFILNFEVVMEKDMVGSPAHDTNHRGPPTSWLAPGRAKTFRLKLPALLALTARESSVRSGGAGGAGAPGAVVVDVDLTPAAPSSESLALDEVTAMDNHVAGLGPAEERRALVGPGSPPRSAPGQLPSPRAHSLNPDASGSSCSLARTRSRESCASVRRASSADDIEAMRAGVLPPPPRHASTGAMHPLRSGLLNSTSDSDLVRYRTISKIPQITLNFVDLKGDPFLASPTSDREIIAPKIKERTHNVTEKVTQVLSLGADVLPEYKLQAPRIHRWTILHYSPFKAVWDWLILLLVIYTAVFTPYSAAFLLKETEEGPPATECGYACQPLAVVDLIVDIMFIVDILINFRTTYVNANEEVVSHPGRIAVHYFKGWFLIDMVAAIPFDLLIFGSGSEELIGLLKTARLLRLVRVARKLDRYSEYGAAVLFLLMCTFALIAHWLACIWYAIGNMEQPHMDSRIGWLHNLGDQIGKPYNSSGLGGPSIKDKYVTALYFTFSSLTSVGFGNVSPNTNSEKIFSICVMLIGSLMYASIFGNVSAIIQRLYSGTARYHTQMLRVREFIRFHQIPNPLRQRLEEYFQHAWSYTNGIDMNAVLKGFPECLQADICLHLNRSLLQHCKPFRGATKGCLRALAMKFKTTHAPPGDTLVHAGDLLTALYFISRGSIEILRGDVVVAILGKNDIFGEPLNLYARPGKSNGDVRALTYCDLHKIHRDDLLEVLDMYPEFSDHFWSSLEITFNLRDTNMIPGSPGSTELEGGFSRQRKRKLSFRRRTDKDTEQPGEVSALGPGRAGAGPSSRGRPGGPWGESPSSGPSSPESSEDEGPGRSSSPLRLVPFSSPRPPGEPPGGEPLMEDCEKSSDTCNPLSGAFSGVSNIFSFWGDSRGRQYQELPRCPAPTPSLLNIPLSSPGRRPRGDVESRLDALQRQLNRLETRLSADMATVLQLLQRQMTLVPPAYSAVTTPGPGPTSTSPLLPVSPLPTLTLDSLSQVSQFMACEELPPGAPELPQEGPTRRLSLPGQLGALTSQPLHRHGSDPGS
row,SMILES,"hERG current change (%, negative = inhibition) at 1uM"
1,COCCNC(=S)N1CCC(C(=O)c2ccc(C)cc2)CC1,7.47%
2,Cc1ccc(C(NC(=O)N2CCOCC2)C(Cl)Cl)cc1F (centres unmarked),5.52%
3,COc1ccc(C(CC(=O)O)NC(=O)C2CCCCC2)cc1 (centres unmarked),4.29%
4,COc1ccc(NC(=O)CSc2n[nH]c(N)n2)c([N+](=O)[O-])c1,22.8%
5,COc1ccc(NS(=O)(=O)c2ccc3oc(Nc4ccc5c(c4)OCCO5)nc3c2)cc1,-3.36%
6,Cc1ccc2nc(-c3ccc(NC(=O)C(C)Sc4nncs4)cc3)sc2c1 (centres unmarked),13.2%
7,NS(=O)(=O)c1ccc(NC(=O)c2cc(Cl)ccc2Cl)cc1,7.88%
8,S=C(c1ccc(Br)cc1)N1CCN(Cc2ccccc2)CC1,-3.15%
9,Cc1ccc(C)c(-n2c(-c3ccncc3)n[nH]c2=S)c1,14.3%
10,COC(C[C@@H](O)C[C@@H](O)[C@H](C)OCc1ccccc1)OC,23.8%
11,CCCCn1nc(NC(=O)CC)c2cc3cc(OC)ccc3nc21,8.22%
12,O=C(CC1SC(=O)N(c2ccccc2)C1=O)Nc1ccccc1 (centres unmarked),14.5%
13,CCn1c2ccccc2c2cc(/C=N/NC(=O)c3cc(O)cc(O)c3)ccc21,9.35%
14,CC(NC(=O)CCCCCNC(=O)N1CCn2c1nc1ccccc12)c1ccccc1 (centres unmarked),3.61%
15,Cc1cc(OCC(=O)NC(Cc2c[nH]c3ccc(O)cc23)C(=O)O)c2c(C)c(C)c(=O)oc2c1 (centres unmarked),14.5%
16,CCc1nnc(N2C(=O)c3cccc4cccc(c34)C2=O)s1,3.78%
17,Cn1c2ccccc2c2cc(/C=N/NC(=O)c3ccccc3F)ccc21,10.6%
18,COc1ccc(-c2cc(=O)[nH]c3ccccc23)cc1,12.5%
19,CCOc1ccc(NS(=O)(=O)c2c(C)nc3sc(CC)nn3c2=O)cc1,6.31%
20,CCCCNC(=O)/C(C#N)=C/c1ccc2c(c1)OCCO2,8.66%
21,O=c1oc2ccccc2c(Nc2cccc(O)c2)c1[N+](=O)[O-],17.8%
22,CC(NC(=O)C1CCC(CNS(=O)(=O)c2ccc3c(c2)C(C)(C)C(=O)N3C)CC1)c1ccccc1 (centres unmarked),9.8%
23,CC(=O)O.O=S(=O)(Cc1ccccc1)N1CCNCC1,12.5%

row,SMILES,"hERG current change (%, negative = inhibition) at 1uM"
1,COc1cccc(CN(Cc2ccco2)C(c2ccc(F)cc2)c2nnnn2C(C)(C)C)c1 (centres unmarked),5.09%
2,Cc1cc(=O)n2cccc(O)c2n1.Cl,16.3%
3,Nc1c(C(=O)NCCN2CCOCC2)c2nc3ccccc3nc2n1-c1ccccc1,-3.09%
4,CNC(=S)N(CCc1ccc(S(N)(=O)=O)cc1)C1CC(=O)N(c2ccccc2F)C1=O (centres unmarked),4.26%
5,O=C(/C=C/c1ccc(S(=O)(=O)N2CCOCC2)cc1)NCc1ccccc1Cl,5.91%
6,O=C(N/N=C/c1ccc(-c2ccccc2[N+](=O)[O-])o1)c1cccnc1,-3.73%
7,CN(C)CCCC(=O)c1ccc2c(c1)OCO2.Cl,11%
8,Cc1ccc(S(=O)(=O)N(CC(=O)Nc2ccccc2C(=O)O)c2ccccc2C)cc1,21.1%
9,CS(=O)(=O)N(CC(=O)Nc1ccc(F)cc1F)c1cccc([N+](=O)[O-])c1,-7.02%
10,CC(C)(C)OC(=O)N/N=C/c1ccc(N2CCOCC2)s1,12.7%
11,O=C(NNC(=O)c1cc2cc(Br)ccc2oc1=O)c1ccc(O)cc1,4.44%
12,O=C(NCc1ccccc1CN1CCCC1)c1cccc(N2CCCC2=O)c1,-0.539%
13,COc1cc(OC)cc(C(=O)NNC(=O)c2ccc(S(=O)(=O)N(C)c3ccccc3OC)cc2)c1,13.2%
14,Cc1ccccc1NC(=O)c1onc2c1CCCC2,-1.91%
15,Cc1ccc(-c2nc3ccccc3c(=O)n2NC(=O)COc2ccccc2)cc1,9.19%
16,O=C(CN1CCCCCC1)Nc1ccc(F)c(F)c1.O=C(O)C(=O)O,-5.86%
17,Cc1[nH]nc2c1C(c1ccc(-c3ccc(Cl)cc3)o1)C(C#N)=C(N)O2 (centres unmarked),1.04%
18,Cc1ccccc1NC(=O)C1CCCN(S(=O)(=O)c2ccc(-n3cnnn3)cc2)C1 (centres unmarked),-0.16%
19,O=[N+]([O-])c1cc(NCCO)c(N2CCCCCC2)c2nonc12,13.6%
20,Cc1ccc(S(=O)(=O)N2CCC(C(=O)N/N=C/c3cccnc3)CC2)cc1,-24.3%
21,CSCCC(NC(=O)/C(=C/c1ccco1)NC(=O)c1ccco1)C(=O)O (centres unmarked),10.3%
22,O=C(N1CCOCC1)N1CCN(S(=O)(=O)c2ccccc2)C1,-11.9%
23,Cc1cc(F)ccc1S(=O)(=O)NCC1CC2CCC1C2 (centres unmarked),7.09%

row,SMILES,"hERG current change (%, negative = inhibition) at 1uM"
1,N#Cc1c(Cl)nc2c(c1C#N)CCCC2,7.6%
2,CSCC[C@H](NC(=O)CCCn1nnc2ccccc2c1=O)C(=O)O,4.89%
3,O=C(CS(=O)(=O)c1c[nH]c2ccccc12)N1CCCCCC1,2.8%
4,CC1CCCC(C)N1C(=O)COC(=O)CNC(=O)C12CC3CC(CC(C3)C1)C2 (centres unmarked),1.83%
5,CNC(=O)CSc1nnc(CCc2ccccc2)n1-c1ccccc1,-5.9%
6,CC(=O)N(CCCN1CCOCC1)Cc1ccncc1.Cl,17%
7,COC(=O)c1[nH]c2cc(OC)ccc2c1N=CN(C)C,0.111%
8,O=C(c1cccs1)N1N=C(c2ccccc2)CC1c1ccccc1 (centres unmarked),9.97%
9,COc1cc(Nc2ccc(C(=O)O)cc2[N+](=O)[O-])cc(OC)c1,-2.81%
10,COc1cc(NS(=O)(=O)c2cccc3nsnc23)cc(OC)c1,10.8%
11,CCCCN1C(=O)Nc2ccccc2S1=O (centres unmarked),9.1%
12,Oc1ccc2ccccc2c1C1Nc2cccc3cccc(c23)N1,7.9%
13,CN(CCC#N)C(=O)CSc1nnc(-c2ccco2)n1N,8.84%
14,CC1CC(C)CN(CCCNC(=O)c2ccc3c(c2)NC(=O)CS3)C1 (centres unmarked),23%
15,CSc1ccccc1NC(=O)c1ccncc1,-3.26%
16,CCOC(=O)C1=C(C)NC(=O)N(C(C)=O)C1c1ccc(Cl)cc1 (centres unmarked),-6.25%
17,O=C(O)/C(=C\c1ccc2ccccc2c1)c1cccc2ccccc12,6.84%
18,O=C(CCS(=O)(=O)CCN1CCOCC1)NCNC(=O)CCS(=O)(=O)CCN1CCOCC1,12.2%
19,O=C(O)c1cc(S(=O)(=O)N2CCCCC2)sc1Cl,9.79%
20,C=CCn1c(SCC(=O)NNC(=S)Nc2ccccc2)nnc1-c1ccccc1,11.1%
21,CCS(=O)(=O)N1Cc2ccccc2CC1C(=O)N(C)CC(=O)Nc1ccc(OC)cc1 (centres unmarked),9.92%
22,CCC(=O)Nc1ccc(NC(=O)c2cccc3ccccc23)cc1,16.4%
23,C/C=C/c1ccc(OCC(=O)OCC2=C(C(=O)OCC)C(C)NC(=O)N2)c(OC)c1 (centres unmarked),13.9%

row,SMILES,"hERG current change (%, negative = inhibition) at 1uM"
1,COc1cccc(CN2CC(C(=O)NCC3CCOCC3)CCC2=O)c1 (centres unmarked),15.2%
2,O=C(CNC(=O)c1ccc(Cl)cc1Cl)OCc1nnc(-c2ccccc2)o1,10.4%
3,Cc1cc(N2CCN(C(=O)OC(C)(C)C)CC2)n2ncnc2n1,-2.37%
4,COc1ccc2c(c1)c(=O)c(C(=O)c1ccc(F)cc1)cn2CC(=O)Nc1ccc(F)cc1,6.3%
5,CC(C)CC(NC(=O)OC(C)(C)C)c1cn([C@@H](Cc2cc3ccccc3[nH]2)C(=O)N2CCN(C(=O)OC(C)(C)C)CC2)nn1 (some centres unmarked),-0.731%
6,CC(O)CNCCCOc1ccccc1OCc1ccccc1.O=C(O)C(=O)O (centres unmarked),-3.01%
7,O=C(CCCNC(=O)/C(=C\c1ccccc1F)NC(=O)c1ccccc1)OCc1ccccc1,4.55%
8,Cl.Cn1c(=O)c2c(ncn2CCNC2=NCCCCC2)n(C)c1=O,-2.04%
9,CCOc1ccc2nc3sc(C(=O)N4CCOCC4)c(N)c3cc2c1,-0.713%
10,CCSc1nnc(COc2ccccc2)n1CC,9.43%
11,CCOc1ccccc1NC(=O)NCc1ccccc1,1.71%
12,CC1(/[N+]([O-])=C/c2ccc(F)cc2)CCCCC1=O (centres unmarked),11.7%
13,CCOC(=O)c1c(C)[nH]c(C(=O)CN2CCN(CC)CC2)c1C.O=C(O)C(=O)O,9.19%
14,CCn1c(CNC(=O)c2ccc(F)cc2)cc2ccccc21,9.6%
15,COc1ccc(OCc2nn[nH]n2)cc1,10.5%
16,COc1ccc(CN2C[C@H](C)[C@@H](CC(=O)NCc3ccccc3)C2=O)cc1,6.23%
17,Nc1nonc1-n1nnc(C(=O)N/N=C/c2ccc(Cl)cc2)c1-c1ccc2c(c1)OCO2,35.6%
18,Cc1ccc(NC(=O)C(NC2CCCc3ccccc32)c2ccccc2)cc1Cl.O=C(O)C(=O)O (centres unmarked),0.417%
19,Cc1ccc(OP(=O)(O)Oc2ccc(C)cc2)cc1,7.36%
20,Oc1ccc(-c2nnc(Nc3ccccc3)c3ccccc23)cc1,-27.7%
